Data reported in PubChem BioAssay AID1030 (National Center for Advancing Translational Sciences (NCATS), 2008).
Where “and” joins values, the source holds several entries; their conditions need not be identical. Identical values can stand only once. The campaign covered roughly 220,000 compounds. About 16,000 (7.3%) were called active. The inconclusive results got no clear call from the source; some entries with a clear call stand among them for comparison. Calls come from the whole dose curve; as a rule, active = well fitted inhibition curve with a large enough effect (not every such curve was filed as active); inconclusive = small, poorly fitted or top-dose-only effect, or another doubt; inactive = no such curve, though single readings can be large or run the other way. No potency is given beside an inconclusive call; the fits are too rough.

These compounds were tested against Aldehyde dehydrogenase 1A1 (Homo sapiens) (UniProt P00352) (assay: qHTS Assay for Inhibitors of Aldehyde Dehydrogenase 1 (ALDH1A1)). Settings: Purified ALDH1A1, NADH fluorescence, propionaldehyde substrate; series mostly up to 75.3 µM; activity, negative = inhibition: at the top concentration.
Chain of UniProt P00352 (P00352 whole entry, looked up): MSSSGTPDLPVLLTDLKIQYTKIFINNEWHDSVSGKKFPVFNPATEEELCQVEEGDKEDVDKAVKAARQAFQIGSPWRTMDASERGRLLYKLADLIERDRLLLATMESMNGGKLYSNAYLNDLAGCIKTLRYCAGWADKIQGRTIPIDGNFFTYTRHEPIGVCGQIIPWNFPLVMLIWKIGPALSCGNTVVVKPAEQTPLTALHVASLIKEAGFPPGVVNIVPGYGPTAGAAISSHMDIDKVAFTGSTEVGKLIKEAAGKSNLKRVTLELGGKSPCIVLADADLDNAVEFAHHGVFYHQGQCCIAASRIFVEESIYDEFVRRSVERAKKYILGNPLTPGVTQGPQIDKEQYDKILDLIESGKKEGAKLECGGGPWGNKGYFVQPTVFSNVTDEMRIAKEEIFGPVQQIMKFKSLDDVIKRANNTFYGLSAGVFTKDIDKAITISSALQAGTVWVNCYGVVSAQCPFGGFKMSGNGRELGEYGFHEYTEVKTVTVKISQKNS
Potency is the fitted concentration of half-maximal effect; tags give direction and shape of the fitted curve.
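Throughout, for activity, negative = inhibition: plate controls were no enzyme wells and a reference inhibitor.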

SMILES | Potency | activity, negative = inhibition
CCCCC1CC1C(=O)Nc1ncc2c(n1)CC(C)(C)CC2=O (configuration not stated) | inconclusive [inhibitor, partial curve] | 
O=c1[nH]c2cc([N+](=O)[O-])c([N+](=O)[O-])cc2[nH]c1=O | inactive | 
O=C1c2sc3nc4n(c(=O)c3c2CCC1Br)CCCCC4 (configuration not stated) | active: 8.91 µM | 
CCN1C(=S)SC(=O)C1=C1C=C(C)N(Cc2ccco2)C(C)=C1 | active: 2.51 µM | 
CSc1ncc(CO)n1Cc1ccccc1 |  | inactive: 10.5%
Nn1cnc2c([nH]c3ccccc32)c1=O | inconclusive [inhibitor, single point] | 
Cc1[nH]c2ccccc2c1CCN(Cc1cccnc1)C(=S)Nc1ccc(F)cc1 | inconclusive [inhibitor, single point] | 
Cc1onc(-c2c(Cl)cccc2Cl)c1C(=O)ONC(=O)c1cc(C(F)(F)F)cc(C(F)(F)F)c1 |  | inactive: -3.31%
Cc1ccc(NC(=S)NC(NC(=O)c2ccccc2)C(Cl)(Cl)Cl)c(C)c1 (configuration not stated) | inconclusive [inhibitor, single point] | 
O=C(/C=C/c1ccc(S(=O)(=O)N2CCOCC2)cc1)NCc1ccccc1Cl | active: 8.91 µM | 
CC(C)(C)C(=O)Nc1ccc(C(=O)N/N=C/C2CC3C=CC2C3)cc1 (configuration not stated) | inconclusive [inhibitor, single point] | 
Cc1ccc(NC(=O)CCC(=O)c2cccs2)cc1 | inconclusive [inhibitor, partial curve] | 
C=CCNC(=O)/C(C#N)=C/c1ccc(SC)cc1 | inconclusive [inhibitor, single point] | 
COC(=O)c1c(NC(=O)CC2SC(N)=NC2=O)sc2c1CCC(C)C2 (configuration not stated) | active: 12.6 µM | 
Cc1ccc(-c2nn(-c3ccccc3)cc2C2SCC(=O)N2Cc2ccccc2)o1 (configuration not stated) | active: 28.2 µM | 
CN1C(=O)/C(=C2/C=Cc3ccccc3N2CCCS(=O)(=O)O)SC1=S |  | inactive: -15.3%
COc1ccc(C2CC(=O)c3cnc(N4CCN(Cc5ccccc5)CC4)nc3C2)cc1 (configuration not stated) | inconclusive [inhibitor, single point] | 
CCOC(=O)c1cnc2sccn2c1=O | inconclusive [inhibitor, single point] | 
Cc1ccc(-n2c3c(cc(C(=O)NCc4ccco4)c2=O)C(=O)CC(C)(C)C3)cc1 | inconclusive [inhibitor, single point] | 
Cc1ccccc1NC(=O)Cn1c([N+](=O)[O-])cnc1C |  | inactive: -0.927%
Brc1ccccc1Cn1c(-c2cscn2)nc2ccccc21 |  | inactive: -7.53%
COCCCNC(=O)C(=O)N/N=C/c1cc2c(cc1Br)OCO2 |  | inactive: -0.374%
Clc1ccc(OCc2nn3c(-c4ccco4)nnc3s2)cc1 | active: 22.4 µM | 
COc1ccc(OC)c(-c2cc(C(=O)N3CCN(c4ccccc4)CC3)no2)c1 | inconclusive [inhibitor, single point] | 
CCN(CC)S(=O)(=O)c1ccc(N2CCOCC2)c(NC(=O)c2cc(-c3ccccn3)nc3ccccc23)c1 | active: 3.55 µM | 
Cc1ccc(S(=O)(=O)N2CCC(C(=O)N[C@@H](C)C(=O)NCc3ccccc3)CC2)cc1 | inconclusive [inhibitor, partial curve, poor fit] | 

SMILES | Potency | activity, negative = inhibition
Cc1c(=O)n(OCc2ccc(Cl)cc2)c2ccccc2[n+]1[O-] | inconclusive [inhibitor, single point] | 
O=C(c1nc2nc(-c3ccccc3)cc(C(F)(F)F)n2n1)N1CCOCC1 | inconclusive [inhibitor, single point] | 
O=C(O)CCC(=O)NC1CCCCC1 |  | inactive: -8.36%
O=C(CNCC1CCCO1)Nc1ccccc1-n1cccc1 (configuration not stated) | inconclusive [inhibitor, single point] | 
O=C(c1cccs1)n1nc(-c2ccccc2)nc1NCc1ccc(F)cc1 | inconclusive [inhibitor, single point] | 
CC(S)C(=O)NCC(=O)O (configuration not stated) | active: 17.8 µM | 
Cc1cc(C)c2c(CN3CCN(C/C=C/c4ccccc4)CC3)cc(=O)oc2c1 | inconclusive [inhibitor, single point] | 
Cc1cc(C)n(-c2nnc(N3CCN(c4ccc(F)cc4)CC3)nn2)n1 |  | inactive: 6.17%
CCCN1CCN(c2ncnc3scc(C4COc5ccccc5O4)c23)CC1 (configuration not stated) |  | inactive: 2.17%
CN(C)S(=O)(=O)c1ccc(N2CCCC2)c(C(=O)Nc2nc(-c3cc(F)ccc3F)cs2)c1 | inconclusive [inhibitor, single point] | 
CN1/C(=C\C(=O)c2ccco2)c2ccccc2CC1(C)C |  | inactive: -11.9%
Cc1ccc(NC(=O)CSc2nc3c(c(=O)[nH]2)CCC3)cc1C | inconclusive [inhibitor, single point] | 
CCOc1ccc(NC(=O)CCC(=O)c2ccc(-c3ccccc3)cc2)cc1 |  | inactive: 4.99%
O=C(CCn1nnc2ccccc2c1=O)N[C@H](C(=O)O)c1ccccc1 | inconclusive [inhibitor, single point] | 
COC(=O)C1=C(C(=O)c2ccc(C)cc2)C(c2ccccc2)n2nnnc2N1 (configuration not stated) | active: 7.08 µM | 
CC(C)c1ccc(/C=N\NC(=O)c2ccc(Cn3cccn3)o2)cc1 | inconclusive [inhibitor, single point] | 
COc1cccc(C(=O)NNC(=O)Cc2ccc([N+](=O)[O-])cc2)c1 | inconclusive [inhibitor, single point] | 
O=C(C/C=N/OCc1ccccc1F)c1cnc(-c2ccc(Cl)cc2)s1 | active: 22.4 µM | 
CCOc1ccc(-c2nc3scc(-c4cccs4)c3c(=O)[nH]2)cc1 | inconclusive [inhibitor, partial curve] | 
Cc1ccccc1C(=O)NC(=S)NCCc1ccccc1 | active: 11.2 µM | 
CCc1ccc(NC(=O)CSc2nc3ccccc3c(=O)n2CCCN2CCC(C)CC2)cc1 |  | inactive: -6.39%
Cc1cc(=O)[nH]c(SCC(=O)Nc2ccc(C(=O)O)cc2)n1 | inconclusive [inhibitor, single point] | 
Cc1cc(C)n(-c2ccc(C(=O)Nc3nnc(C4CC4)s3)cc2)n1 | inconclusive [inhibitor, single point] | 
COc1ccc(NC(=O)Nc2ncn(Cc3cccc(C(F)(F)F)c3)n2)cc1OC |  | inactive: -0.964%
COc1ccccc1-n1cnnc1SCC(=O)Nc1cc(C)on1 | active: 5.01 µM | 
N#Cc1cc(-c2ccccc2)nn1-c1ccccc1 | active: 22.4 µM | 

SMILES | Potency | activity, negative = inhibition
C=C(C)Cn1c(=O)c(NC(=O)c2ccccc2)c2n(c1=S)CCC2 | inconclusive [inhibitor, single point] | 
COc1ccc(CCCC(=O)Nc2ccc(F)cc2)cc1 |  | inactive: -9.21%
O=C(/N=C1\NC(=O)C(F)(C(F)(F)F)S1)NC1CCCCC1 (configuration not stated) | active: 7.08 µM | 
COc1ccc(OC)c(NC(=O)COC(=O)c2c3c(nc4ccccc24)CCCC3)c1 |  | inactive: -13.1%
CCOc1ccc(C(C(=O)NC2CCCCC2)N(C(=O)Cc2cccs2)c2ccc(-n3cnnn3)c(OC)c2)cc1 (configuration not stated) | inconclusive [inhibitor, single point] | 
CCc1cc2c(nc1CC)CCN(CC/C(C)=N/OCC[C@@H]1C=C[C@H](OC(C)=O)[C@H](COC(C)=O)O1)C2 |  | inactive: 2.42% [at 13.5 µM]
Nc1ncc2[nH]cnc2n1 | inconclusive [inhibitor, single point] | 
CC1(C)C(=O)C2(C(=O)NCc3ccccc3)CCC1C2 (configuration not stated) |  | inactive: 8.66%
O=C(O)Cc1coc2ccc3ccccc3c12 |  | inactive: -5.88%
CCCN(CCC)c1nc(N)nc(-c2cc(Cl)ccc2OC)n1 |  | inactive: 0.309%
COCCn1nc2cc(C(=O)NCc3cc(C(F)(F)F)cc(C(F)(F)F)c3)ccc2c1OC | inconclusive [inhibitor, partial curve] | 
CC(C)C(=O)Nc1cccc(NC(=S)NC(=O)c2ccccc2Cl)c1 | inconclusive [inhibitor, single point] | 
COC(=O)C(Cc1ccccc1)NC(=S)NC(=O)c1ccccc1 (configuration not stated) | active: 8.91 µM | 
CCOc1ccc(N=C2SC(C(=O)O)CC(=O)N2C)cc1 (configuration not stated) | inconclusive [inhibitor, single point] | 
CCN(C(=O)COC(=O)c1ccc(Cl)nc1)C1CCS(=O)(=O)C1 (configuration not stated) |  | inactive: 3.27%
COC(=O)CNS(=O)(=O)c1ccc(Cc2ccc(S(=O)(=O)NCC(=O)OC)cc2)cc1 | inconclusive [inhibitor, partial curve] | 
COCn1c2ccccc2c2nnc(C(C)=O)nc21 |  | inactive: -0.753% [at 13.5 µM] and inactive: -7.15% [at 13.5 µM]
CCn1c(C)nc2cc(S(N)(=O)=O)ccc21 |  | inactive: 7.6%
COC(=O)c1cc(OC)c(OC)cc1NC(=O)c1ccc(C)cc1 | inconclusive [inhibitor, single point] | 
CCN1C(=O)C(CC(=O)Nc2ccc(F)cc2)N(CCCN2CCN(c3ccc(F)cc3)CC2)C1=S (configuration not stated) |  | inactive: -11%
CC[n+]1cc(-c2ccccc2)nc(N2CCOCC2)n1 | inconclusive [inhibitor, single point] | 
O=C(c1noc2c1CCCC2)N1CCc2c([nH]c3ccccc23)C1c1ccccn1 (configuration not stated) |  | inactive: -3.29%
CC1CCN(c2oc(-c3cccc4ccccc34)nc2C#N)CC1 | inconclusive [inhibitor, partial curve] | 
Cc1sc(N/N=C/c2cccs2)nc1-c1ccccc1 |  | inactive: -0.606%
O=c1c(-c2n[nH]c(=S)o2)cccn1Cc1ccccc1 | inconclusive [inhibitor, single point] | 
